In PubChem BioAssay AID504832 (National Center for Advancing Translational Sciences (NCATS), 2011):
“And” between values parts separate entries of the source, which are not always exact repeats. Identical values can stand only once. Screen size: about 310,000 compounds; about 18,000 (5.8%) were called active. The shares of active, inactive and inconclusive entries below differ from those in the screen. Calls come from the whole dose curve; as a rule, active = well fitted inhibition curve with a large enough effect; inconclusive = small, poorly fitted or top-dose-only effect, or another doubt; inactive = no such curve, though single readings can be large or run the other way. Potencies of inconclusive entries are left out as doubtful fits.
Potency is the fitted concentration of half-maximal effect; tags give direction and shape of the fitted curve.

Assay: Primary qHTS for delayed death inhibitors of the malarial parasite plastid, 48 hour incubation
Conditions: P. falciparum luciferase growth in erythrocytes; series mostly up to 28.7 µM
Method in brief: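 Growth was read as firefly luciferase luminescence after a 48 h, 37 C, 5% CO2 exposure of compounds to reporter-bearing P. falciparum cultures (0.1% parasitemia, 2% hematocrit final) in Albumax-supplemented RPMI 1640.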
With Cc1ccc(Cl)cc1N1CCN(C(=O)CN(c2ccccc2)S(=O)(=O)N(C)C)CC1 the Potency was inconclusive [inhibitor, partial curve].
With CCOC(=O)C1=C(C)N(c2ccccc2)C(=O)NC1c1cccc([N+](=O)[O-])c1 (stereo not given) the Potency was inconclusive [inhibitor, single point].
For CN(C)c1ccc(NC(=O)CC2NCCNC2=O)cc1 (stereo not given), the Potency was “inactive”.
For COC(=O)c1ccc(O)cc1, the Potency was “inactive”.
For COc1ccccc1CCNC1C2CC3CC(C2)CC1C3 (stereo not given), the Potency was inconclusive [inhibitor, single point].
In the case of CC1(C)CC(=O)CC2(C1)NCC(c1ccccc1)c1c2[nH]c2ccccc12 (stereo not given), the Potency is reported as active: 5.86 µM.
In the case of COc1ccccc1N1CCN(C(=O)COc2ccc(Cl)cc2Br)CC1, the Potency is reported as “inactive”.
For COc1ccc(C(CNC(=O)c2cccc(N(C)C)c2)N2CCCC2)cc1 (stereo not given), the Potency was active: 10.4 µM.
For Cc1ccc(/C=C2/SC(=S)N(CCC(=O)N3CCN(C)CC3)C2=O)cc1, the Potency was inconclusive [inhibitor, full curve, poor fit].
For O=C(Nc1ccc(Cl)cc1)Nc1ccc(N2CCCC2)c(S(=O)(=O)Nc2ccccc2Cl)c1, the Potency was inconclusive [inhibitor, single point].
With CCc1ccccc1N(C(=O)c1snc(C(N)=O)c1N)C(C(=O)NCC1CCCO1)c1ccc(N(C)C)cc1 (stereo not given) the Potency was inconclusive [inhibitor, full curve].
With CN1CCN(S(=O)(=O)c2ccc(Nc3cccc(Cl)c3)c([N+](=O)[O-])c2)CC1 the Potency was inconclusive [inhibitor, partial curve, poor fit].
In the case of COc1ccc(C(=O)NNC(=O)c2snnc2C)cc1, the Potency is reported as “inactive”.
For COc1ccc(NC(=O)CCN2CCN(S(=O)(=O)c3cc(Cl)ccc3Cl)CC2)cc1, the Potency was inconclusive [inhibitor, single point].
In the case of COc1cccc(N(CC(=O)NC2CCCCC2)C(=O)CCC(=O)Nc2nc(C)cs2)c1, the Potency is reported as inconclusive [inhibitor, partial curve].
With CCn1c(SCC(=O)Nc2cc(C)on2)nnc1-c1cccc(C)c1 the Potency was “inactive”.
With Cc1ccc2nc(-c3ccc(NC(=S)NC(=O)C(C)C)cc3)sc2c1 the Potency was “inactive”.
With C=CCOc1ccnc(-c2ccccc2)n1 the Potency was “inactive”.
With COc1ccc(CCNCC2C(Oc3ccc(Cl)cc3)C(=O)N2c2ccccc2C)cc1OC (stereo not given) the Potency was inconclusive [inhibitor, partial curve, poor fit].
In the case of COc1ccc(OC)c2[nH]c(=O)c(CCNC(=O)c3ccc4c(c3)OCO4)cc12, the Potency is reported as inconclusive [inhibitor, single point].
With O=C(Nc1ccc(C(=O)Oc2ccccc2)c(O)c1)c1ccco1 the Potency was “inactive”.
With O=C(Nc1cccc(-c2ccc(N3CCCCC3)nn2)c1)C(F)(F)F the Potency was inconclusive [inhibitor, single point].
In the case of CC(C)c1nnc(NC(=O)CC(=O)Nc2ccccc2C(=O)O)s1, the Potency is reported as “inactive”.
In the case of Cc1ccc(-n2[nH]c(C)c(/C=N/N3C(=O)c4cccc5cccc(c45)C3=O)c2=O)cc1, the Potency is reported as “inactive”.
For Cc1c(Cl)cccc1NC(=O)C1COc2ccccc2O1 (stereo not given), the Potency was “inactive”.
In the case of COc1ccc(CCNC(=O)c2ccc(CNS(=O)(=O)c3ccccc3)cc2)cc1OC, the Potency is reported as inconclusive [inhibitor, partial curve].
In the case of COc1cc(C)ccc1OCCOCCOc1cccc2ccc(C)nc12, the Potency is reported as “inactive”.
For CC(C)NC(=O)CSc1nnc(C2CC2)n1-c1ccccc1, the Potency was inconclusive [inhibitor, full curve].
With CC(C)(C)c1ccccc1NC(=O)N1CCNC(=O)C1CC(=O)Nc1ccc(F)cc1 (stereo not given) the Potency was inconclusive [inhibitor, single point].
With CC[C@H](C)[C@H](NC(N)=O)C(=O)NCCc1ccc(Cl)cc1Cl the Potency was “inactive”.
For O=c1c2ccccc2nc(SCc2ccc(F)cc2Cl)n1CCCN1CCOCC1, the Potency was inconclusive [inhibitor, single point].
With CCCN(C(=O)c1cc(S(=O)(=O)N2CCCCCC2)ccc1OC)C1CCS(=O)(=O)C1 (stereo not given) the Potency was inconclusive [inhibitor, partial curve, poor fit].
In the case of O=C(c1ccccc1)N1N=C(c2ccccc2)CC1c1ccccc1[N+](=O)[O-] (stereo not given), the Potency is reported as inconclusive [inhibitor, full curve].
With Cc1cc(Br)ccc1SCC(=O)Nc1cccnc1 the Potency was inconclusive [inhibitor, partial curve, poor fit].
For Cc1sc2nc(CSc3ccccc3)nc(N3CCOCC3)c2c1C, the Potency was inconclusive [inhibitor, single point].
For Cc1ccc(N(O)C(=O)OCCNC(=O)Nc2ccccc2)cc1, the Potency was “inactive”.
In the case of CC(CNC(=O)c1cc(COc2ccc3ncccc3c2)on1)c1ccccc1 (stereo not given), the Potency is reported as inconclusive [inhibitor, single point].
For Cc1nnc(Nc2ccc(Cl)c(C(F)(F)F)c2)[nH]c1=O, the Potency was inconclusive [inhibitor, partial curve].
For O=C(CC1SC(=NC2CCCCC2)NC1=O)Nc1ccccc1 (stereo not given), the Potency was inconclusive [inhibitor, single point].
With CCCc1ccc2oc(C(=O)NCCN3CCCC(O)C3)c(C)c2c1 (stereo not given) the Potency was inconclusive [inhibitor, partial curve, poor fit].
In the case of CCOc1ccc(Cl)cc1S(=O)(=O)N1CCC(C(=O)NCc2ccncc2)CC1, the Potency is reported as “inactive”.
For CCOC(=O)C1(c2ccccc2)CCN(CCC(=O)Nc2ccc(F)cc2)CC1, the Potency was active: 13.1 µM.
In the case of CC(C)c1nc(N2CCN(C(=O)c3ccccc3)CC2)c(C#N)c2c1COC(C)(C)C2, the Potency is reported as active: 10.4 µM.
With C=CC(COCc1ccccc1)N(C(=O)OC(C)(C)C)S(=O)(=O)c1ccccc1Br (stereo not given) the Potency was inconclusive [inhibitor, single point].
In the case of CN(C)S(=O)(=O)c1cccc(COc2ncnc3c(Cl)cc(Cl)cc23)c1, the Potency is reported as “inactive”.
For O=C(N/N=C(\CC(=O)c1cccs1)C(F)(F)F)c1ccncc1, the Potency was active: 0.233 µM.
With Cc1nc(Sc2ccccc2)c(C#N)c(C)c1[N+](=O)[O-] the Potency was active: 7.38 µM.
With CCOC(=O)c1ccc(NC(=O)CN2C(=O)NC3(CCC(C)CC3)C2=O)cc1 (stereo not given) the Potency was inconclusive [inhibitor, partial curve].
With COc1cc(CO)ccc1OCC(=O)Nc1cccc2ccccc12 the Potency was “inactive”.
For COc1ccc(/C=C2/SC(=S)N(CC(=O)O)C2=O)cc1OCc1ccc(Cl)cc1, the Potency was inconclusive [inhibitor, partial curve].
For O=C1C(Cc2c[nH]c3ccccc23)NC(=S)N1Cc1ccccc1 (stereo not given), the Potency was inconclusive [inhibitor, single point].
In the case of CC1=C(C(=O)Nc2ccccc2)C(c2ccc(C)o2)n2c(s/c(=C\c3ccco3)c2=O)=N1 (stereo not given), the Potency is reported as active: 13.1 µM.
With FC(F)(F)c1cccc(Nc2ncnc3ccccc23)c1 the Potency was inconclusive [inhibitor, single point].
In the case of Cc1nc(Nc2ccc(S(=O)(=O)N3CCCC3)cc2)c2nnn(Cc3ccccc3)c2n1, the Potency is reported as inconclusive [inhibitor, partial curve].
For COc1ccccc1NC(=O)c1sc2ncn(Cc3ccc(C)cc3)c(=O)c2c1C, the Potency was inconclusive [inhibitor, single point].
For COc1cc(OC)cc(C(=O)NCC(=O)OC2CCCCC2=O)c1 (stereo not given), the Potency was inconclusive [inhibitor, single point].
In the case of CCCC(=O)N(Cc1cc(=O)[nH]c2ccccc12)c1ccccc1OC, the Potency is reported as active: 7.38 µM.
For O=C(NCCN1CCN(c2ccccc2)CC1)C1CCN(S(=O)(=O)c2cccc3nonc23)CC1, the Potency was inconclusive [inhibitor, partial curve].
In the case of Cc1nc(N2CCN(c3ccccc3)CC2)c2c3c(sc2n1)CCC3, the Potency is reported as inconclusive [inhibitor, full curve, poor fit].
For O=c1[nH]c(=O)n(-c2ccc(Br)cc2)c(O)c1C=NC(CO)(CO)CO, the Potency was inconclusive [inhibitor, single point].
With COc1ccc(C(=O)O/N=C(\N)Cc2ccc(Cl)c(Cl)c2)cc1OC the Potency was active: 4.15 µM.
With c1ccc2c3c(cc(N4CCOCC4)c2c1)OC1(N2CCOCC2)CCCCC1O3 (stereo not given) the Potency was inconclusive [inhibitor, partial curve].
In the case of Cc1ccccc1N(CC(=O)NCCc1ccccc1)C(=O)CCC(=O)Nc1ccccn1, the Potency is reported as inconclusive [inhibitor, partial curve, poor fit].
For COP(=O)(OC)c1nc(-c2cccc3ccccc23)oc1NCc1ccccc1, the Potency was inconclusive [inhibitor, partial curve, poor fit].
For O=C(COc1ccc(F)cc1)Nc1cc(Cl)ccc1-n1cncn1, the Potency was inconclusive [inhibitor, single point].
For Cc1ccc(C2=NNC(c3ccc(Cl)cc3)=Nc3ccccc32)o1, the Potency was active: 10.4 µM.
With CCN1/C(=C/C=C/c2sc3ccccc3[n+]2CC)Sc2ccccc21 the Potency was active: 75.7 nM and active: 329 nM.
For COc1ccc(/C=N/NC(=O)CN(C)S(=O)(=O)c2ccc(NC(C)=O)cc2)cc1, the Potency was inconclusive [inhibitor, full curve, poor fit].
For CCn1c(SCc2ccccc2)nc2cc(OC)c(OC)cc2c1=O, the Potency was active: 10.4 µM.
In the case of COc1ccc(NC(=O)c2sc(-c3ccccc3)nc2C)c(OC)c1, the Potency is reported as “inactive”.
